Results from PubChem BioAssay AID686971 (National Center for Advancing Translational Sciences (NCATS), 2013).
Out of some 360,000 compounds screened, about 7,500 (2.1%) were called active. The shares of active, inactive and inconclusive entries below differ from those in the screen. Calls follow the shape of the dose curve; as a rule, active = well fitted cell-killing curve with a large enough effect; inconclusive = small, poorly fitted or top-dose-only effect, or effect the other way, or another doubt; inactive = no such curve, though single readings can be large or run the other way. No potency is given beside an inconclusive call; the fits are too rough.

Assay: qHTS for induction of synthetic lethality in tumor cells producing 2HG: qHTS for the HT-1080-IDH1KD cell line;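 as to activity, negative = toxicity: 0% = DMSO wells and -100% = cell-free medium wells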
Details: HT-1080 IDH1 knockdown viability, ATP luminescence, 48 h; activity, negative = toxicity: at 46.1 µM (top of the series) unless noted
In short: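 Viability of IDH1-knockdown HT-1080 fibrosarcoma cells was assessed by CellTiter-Glo after 48 h at 37 °C with titrated compound; concentration-effect curves were classified by fit quality and response size.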
Potency is read from the fitted curve at half-maximal effect; tags tell the direction and shape of the fitted curve.

Row | Structure (SMILES) | Potency | activity, negative = toxicity
1 | O=C1NC(c2ccccc2)=C(c2nc3ccccc3s2)C(c2ccc(O)cc2)N1 (configuration not stated) | active: 5.62 µM | –
2 | O=C(Nc1ccc(F)cc1)C(CCc1ccccc1)N1CCN(Cc2c(F)cccc2Cl)CC1 (configuration not stated) | inactive | –
3 | CCCC[C@H](CN[C@@H](CNC)[C@H](C)CC)NCCC12CCC(CC1)C2 | inconclusive [cytotoxic, single point] | –
4 | COc1ccc(CCNc2nc(-c3ccncc3)cs2)cc1OC | inactive | –
5 | Cc1ccccc1OCC(=O)OCC(=O)c1ccc(OC(=O)c2ccccc2)cc1 | inconclusive [cytotoxic, single point] | –
6 | Cc1ccc(-n2c(=O)c3sccc3n(CC(=O)NCc3ccco3)c2=O)cc1F | inconclusive [cytotoxic, single point] | –
7 | CCC1=NN(C(=O)C(=O)Nc2ccc(OC)cc2)C(O)(C(F)(F)F)C1 (configuration not stated) | active: 5.01 µM | –
8 | Cc1ccc(Nc2nnc(SCC(=O)NC3CCCc4ccccc43)s2)cc1 (configuration not stated) | inactive | –
9 | Cc1cc(C(=O)NNc2ccc(F)cc2)no1 | active: 5.17 µM | –
10 | N#CCOc1ccccc1CNC[C@H]1O[C@@H](n2cnc3c(=O)[nH]c(N)nc32)[C@H](O)[C@@H]1O | inactive | –
11 | COc1ccc(OCC(=O)NNC(=O)c2ccccn2)cc1 | – | inconclusive: -30.7% [cytotoxic]
12 | Cc1ccc(-c2onc3ccc(C(=O)/C=C/N(C)C)cc23)cc1 | inconclusive [cytotoxic, single point] | –
13 | O=C(Nc1ccccc1)Nc1ccc2snnc2c1 | inconclusive [cytotoxic, single point] | –
14 | CC(C)(C)NS(=O)(=O)c1ccc(NC(=O)C2CCCCC2)cc1 | inactive | –
15 | CCS(=O)(=O)c1ncc(Cl)c(C(=O)Nc2ccc(S(=O)(=O)N3CCC(C)CC3)cc2)n1 | active: 3.66 µM | –
16 | CCOC(=O)C1=CCN(S(=O)(=O)c2ccccc2C)C1c1cccc(Br)c1 (configuration not stated) | inconclusive [cytotoxic, single point] | –
17 | Cc1ccc2[nH]c(C)cc(=S)c2c1 | active: 23.1 µM | –
18 | Cc1cccc(NS(=O)(=O)c2cccc(C(=O)NNC(=O)c3ccccc3O)c2)c1 | inconclusive [cytotoxic, partial curve, poor fit] | –
19 | COc1ccc2sc(-c3ccccc3OC)c(C#Cc3cncn3C)c2c1 | inconclusive [cytotoxic, single point] | –
20 | O=C(Oc1ccc[nH]c1=O)c1cc([N+](=O)[O-])cc([N+](=O)[O-])c1 | inconclusive [cytotoxic, single point] | –
21 | CCCCCCCCN1C(=O)[C@H](CC(=O)N2CCN(C(=O)C3CC3)CC2)C[C@@]2(C(=O)OC)CCCCC=C12 | inconclusive [cytotoxic, single point] | –
22 | O=S(=O)(N/N=C/c1ccc2c(c1)OCCO2)c1ccccc1 | inactive | –
23 | Cc1cc(C)c2nc(N3CCC(C(=O)N4CCN(C(=O)c5ccco5)CC4)CC3)sc2c1 | inactive | –
24 | C=CCNCC(=O)N1N=C(c2ccc3ccccc3c2)CC1c1ccc(OC)cc1 (configuration not stated) | active: 23.1 µM | –

Row | Structure (SMILES) | Potency | activity, negative = toxicity
25 | CCc1ccc2[nH]c(=O)c(CN(CCN(C)C)C(=S)NCc3ccco3)cc2c1 | – | inconclusive: -32.3% [cytotoxic]
26 | Cc1cc(F)ccc1N1CCC(N2CCN(C(C)C)C(CCO)C2)CC1 (configuration not stated) | inactive | –
27 | Cc1cc(C(=O)NCC(=O)OC(C)C(=O)N2CCOCC2)ccc1[N+](=O)[O-] (configuration not stated) | inactive | –
28 | CC1CCCN(C(=O)COC(=O)c2cc(-c3cccs3)nn2-c2ccccc2)C1 (configuration not stated) | inactive | –
29 | CCN(CC)S(=O)(=O)c1ccc(NC(=O)Nc2cccc(C(F)(F)F)c2)cc1 | inconclusive [cytotoxic, single point] | –
30 | O=C(NNc1ncc(C(F)(F)F)cc1Cl)c1c(Cl)cccc1Cl | active: 7.31 µM | –
31 | Cc1ccc(C(=O)NC(=S)Nc2cccc3c(C)cc(C)nc23)cc1 | inactive | –
32 | CCOC(=O)c1cc2cc(OC)ccc2n1C1CCN(CCc2ccccc2)CC1 | active: 18.4 µM | –
33 | O=C(NCCCN1CCOCC1)c1ccc2c(=O)n(Cc3cccc(Br)c3)c(=S)[nH]c2c1 | inconclusive [cytotoxic, partial curve, poor fit] | –
34 | CCc1ccc(-c2cc3c(=O)n(CC(=O)NCCCN4CCN(C)CC4)ncn3n2)cc1 | inconclusive [cytotoxic, single point] | –
35 | O=C1N=c2ccc([N+](=O)[O-])cc2=C1c1sc(=O)[nH]c1O | inactive | –
36 | COc1ccccc1C(=O)NNC(=O)c1cc2ccccc2cc1O | inconclusive [cytotoxic, partial curve] | –
37 | COc1cc(-n2c(N)c(C(=O)NCc3ccco3)c3nc4ccccc4nc32)cc(OC)c1OC | inconclusive [cytotoxic, single point] | –
38 | CC1(C)CC(Nc2ccc(Nc3ccccc3)cc2)CC(C)(C)N1 | inactive | –
39 | CCCCc1ccc(Nc2nc(N3CCOCC3)nc(N3CCOCC3)n2)cc1 | inconclusive [cytotoxic, single point] | –
40 | Cc1ccc(CCNC(=O)C2CCN(S(=O)(=O)N3CCC4(CC3)OCCO4)CC2)cc1 | – | inconclusive: 31.8%
41 | CCc1nc2ccc(C(=O)NCCCN3CCCC3=O)cn2c1N(CC)C(C)=O | inconclusive [rising, single point] | –
42 | CN(CC(=O)Nc1ccc(Cl)cc1)C(=O)CN1C(=O)C2CCCCC2C1=O (configuration not stated) | inconclusive [cytotoxic, partial curve, poor fit] | –
43 | COC(=O)[C@@]1(Cc2ccc(F)cc2)[C@H]2c3cc(C(=O)N4CCCC4)n(Cc4cc(F)cc5c4OCOC5)c3C[C@H]2CN1C(=O)c1ccccc1 | inconclusive [cytotoxic, partial curve] | –
44 | CCCCSc1nc(N)c(C#N)c(-c2cccs2)c1C#N | inconclusive [cytotoxic, single point] | –
45 | COc1ccccc1-c1ocnc1C(=O)Nc1ccc(N2CCOCC2)cc1N1CCOCC1 | inactive | –
46 | OC(c1ccc(F)c(F)c1)c1nc(-c2cccc(C(F)(F)F)c2)cs1 (configuration not stated) | inconclusive [cytotoxic, single point] | –
47 | COc1ccc(OC)c(NC(=O)CSc2ncnc3c2cnn3-c2ccccc2Cl)c1 | inactive | –
48 | COc1cc(-c2nc3cnccn3c2Nc2ccc(C)cc2)ccc1O | active: 15.8 µM | –

Row | Structure (SMILES) | Potency | activity, negative = toxicity
49 | Cc1cc2c(cc1S(=O)(=O)N1CCN(c3cccc(C)c3C)CC1)OCC(=O)N2 | inactive | –
50 | O=S(=O)(/C=C/c1ccccc1)N1CCN(c2cccc(Cl)c2)CC1 | inconclusive [cytotoxic, single point] | –
51 | COc1cccc(NC(=O)C(Sc2nnc(Nc3ccccc3C)s2)c2ccccc2)c1 (configuration not stated) | – | inconclusive: -30.4% [cytotoxic]
52 | O=C(NCc1ccccc1)C(c1ccc(-c2ccccc2)cc1)N1CCN(CCN2CCOCC2)CC1 (configuration not stated) | inconclusive [cytotoxic, single point] | –
53 | Cc1cccc(C(O)c2ncc(-c3cccc(C(F)(F)F)c3)[nH]2)c1C (configuration not stated) | inconclusive [cytotoxic, partial curve] | –
54 | CCc1ccc2[nH]c(=O)c(CN(Cc3ccccc3)Cc3nnnn3Cc3ccco3)cc2c1 | inconclusive [cytotoxic, single point] | –
55 | c1ccc2c(c1)OC(CCCN1CCCCC1)c1ccccc1S2 (configuration not stated) | inconclusive [cytotoxic, single point] | –
56 | CCOC(=O)C1=C(CN2CCc3ccccc32)NC(=O)NC1c1cccc([N+](=O)[O-])c1 (configuration not stated) | – | inconclusive: -54.1%
57 | COc1ccc(-n2nnc3c(SCC(=O)NCC4CCCO4)ncnc32)cc1 (configuration not stated) | inactive | –
58 | COC(=O)c1ccc(N2CCC(c3cc(-c4ccc(OC)cc4)n[nH]3)CC2)c([N+](=O)[O-])c1 | inconclusive [cytotoxic, single point] | –
59 | O=C(Cc1cccs1)NCc1ccc(Cl)cc1Cl | inactive | –
60 | COc1ccccc1-n1c(SCC(=O)Nc2nnc(C)s2)nc2c(c1=O)SCC2 | inconclusive [cytotoxic, single point] | –
61 | CCOC(=O)N1CCN(S(=O)(=O)c2ccc(C(=O)Nc3sc4c(c3C(N)=O)CC(C)(C)NC4(C)C)cc2)CC1 | inconclusive [cytotoxic, single point] | –
62 | CC(C)(C)c1ccc(Cn2c(=O)cnc3ccccc32)cc1 | active: 7.31 µM | –
63 | CCSc1cc(N2CCOCC2)nc(-c2ccccc2)n1 | inactive | –
64 | Cc1ccc(C)c(N2CCN(C(=O)CCCN3C(=S)NC(C)(C)CC3C)CC2)c1 (configuration not stated) | inconclusive [cytotoxic, single point] | –
65 | O=C(Nc1cccnc1)c1ccc(Oc2ccccc2)cc1 | active: 25.9 µM | –
66 | Cc1ccc2nc(-c3ccncc3)cc(C(=O)Nc3ccc(OC(F)F)cc3)c2c1 | inconclusive [cytotoxic, full curve] | –
67 | CCOc1ccc(C2=Nn3c(nnc3-c3ccc(OC)cc3)SC2)cc1 | active: 6.51 µM | –
68 | CC(C)CCn1c(SCc2ccc(Cl)cc2)nc2c1c(=O)[nH]c(=O)n2C | inactive | –
69 | COC(=O)C1=C(C)NC(C)=C(C(=O)OCC(C)C)C1c1ccccc1[N+](=O)[O-] (configuration not stated) | active: 25.9 µM | –
70 | O=C(CN1C(=O)NC2(CCCCCC2)C1=O)Nc1ccc(Cl)c([N+](=O)[O-])c1 | inconclusive [cytotoxic, partial curve] | –
71 | COc1cccc(-c2cc(C(=O)N3CCCCC3C)no2)c1 (configuration not stated) | inactive | –
72 | CC1SC(=NC(=O)c2ccncc2)NC1=O (configuration not stated) | inconclusive [rising, single point] | –
